About 2,200 (0.71%) of roughly 310,000 compounds showed an effect of 50% or more. The effect is printed as a negative number. The list shows a part of the results.
Target: human ether-à-go-go-related gene (hERG) potassium channel (human, UniProt Q12809)
Assay: primary screen, population patch clamp on CHO cells stably expressing hERG

Chain of human ether-à-go-go-related gene (hERG) potassium channel (Q12809 whole entry, looked up): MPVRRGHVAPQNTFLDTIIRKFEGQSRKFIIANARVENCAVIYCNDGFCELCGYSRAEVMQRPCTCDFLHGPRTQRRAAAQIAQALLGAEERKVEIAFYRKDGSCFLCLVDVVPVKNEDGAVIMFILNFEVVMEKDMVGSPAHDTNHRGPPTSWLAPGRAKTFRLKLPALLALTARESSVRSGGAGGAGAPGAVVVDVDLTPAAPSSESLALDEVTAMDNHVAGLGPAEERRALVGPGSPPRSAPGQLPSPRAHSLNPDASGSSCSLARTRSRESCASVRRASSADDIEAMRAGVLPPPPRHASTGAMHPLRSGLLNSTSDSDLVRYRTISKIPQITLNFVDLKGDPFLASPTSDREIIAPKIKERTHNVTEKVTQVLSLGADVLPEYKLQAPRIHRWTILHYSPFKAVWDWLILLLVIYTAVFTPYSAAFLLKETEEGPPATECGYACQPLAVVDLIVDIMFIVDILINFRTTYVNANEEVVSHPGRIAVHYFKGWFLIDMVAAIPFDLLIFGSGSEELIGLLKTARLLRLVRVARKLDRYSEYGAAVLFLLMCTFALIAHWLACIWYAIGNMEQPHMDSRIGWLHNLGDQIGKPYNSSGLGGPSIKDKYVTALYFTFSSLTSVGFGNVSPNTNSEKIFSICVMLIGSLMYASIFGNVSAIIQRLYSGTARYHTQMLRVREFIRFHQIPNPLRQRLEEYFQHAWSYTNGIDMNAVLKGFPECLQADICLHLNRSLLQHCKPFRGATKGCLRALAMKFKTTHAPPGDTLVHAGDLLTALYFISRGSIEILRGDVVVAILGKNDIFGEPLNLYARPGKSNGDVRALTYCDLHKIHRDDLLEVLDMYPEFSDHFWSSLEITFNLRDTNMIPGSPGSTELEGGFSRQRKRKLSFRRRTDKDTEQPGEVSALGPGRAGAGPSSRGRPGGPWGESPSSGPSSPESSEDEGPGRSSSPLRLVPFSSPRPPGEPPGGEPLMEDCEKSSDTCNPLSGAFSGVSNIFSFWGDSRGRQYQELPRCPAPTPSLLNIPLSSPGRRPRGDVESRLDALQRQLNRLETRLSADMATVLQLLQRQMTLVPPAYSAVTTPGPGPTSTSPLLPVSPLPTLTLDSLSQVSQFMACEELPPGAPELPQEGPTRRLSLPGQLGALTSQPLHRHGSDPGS

| Compound | hERG current change (%, negative = inhibition) at 1uM [%] |
| --- | --- |
| Cc1ccc(Cn2c(C3CCCN3c3nc(-c4ccc(F)cc4)cs3)nc3cc(Cl)c(Cl)cc32)cc1 (stereo not shown) | 10.1 |
| CCCCNc1nc(N)nc(-c2cc(Cl)ccc2O)n1 | 8.93 |
| CCOC(=O)c1nn(-c2ccccc2)c(=O)c2c(NC(C)=O)scc12 | 11.4 |
| O=c1c2ccccc2ccc2ccccc12 | 7.17 |
| O=C(Nc1ccc(CN2CCOCC2)cc1)c1ccc(-c2cccc(Cl)c2)o1 | -6.46 |
| Cn1c(CC(=O)Nc2ccc(Cl)cc2)nnc1SCC(=O)N1CCOCC1 | 3.65 |
| COc1ccc(Cl)cc1NC(=O)c1nnn(CC(=O)Nc2cc(C)cc(C)c2)c1N | 20.5 |
| COc1ccccc1N1C(=O)N(C(C)=O)C2C1Nc1ccccc1N2C (stereo not shown) | 3.89 |
| Fc1cccc(Cn2cc(C(=S)N3CCCCC3)c3ccccc32)c1 | 2.48 |
| CN(C)CCCNc1nc(-c2ccccc2)nc2ccccc12.Cl | 11.5 |
| CN(C)CCNC(=O)C(C(=O)c1ccc(F)cc1)n1ccccc1=O.Cl (stereo not shown) | 15 |
| CC(C)(C)N(CC#CCC(O)(c1ccccc1)c1ccccc1)CCO | 8.71 |
| CC(NC(=O)c1ccco1)C(=O)OCC(=O)N1CCCCCC1 (stereo not shown) | 14.6 |
| Cc1cc(C)cc(C(=O)Nc2ccc(NC(=O)Cc3ccccc3)cc2)c1 | 5.69 |
| Cc1ccc(CN2CC(C(=O)N3CCN(S(=O)(=O)c4cc(C)ccc4C)CC3)CC2=O)cc1 (stereo not shown) | 0.351 |
| COc1ccccc1OCCNS(=O)(=O)c1ccc2oc3ccccc3c2c1 | 0.489 |
| COc1ccccc1C(=O)C1CCCN(C(=O)c2cn3cc(Cl)ccc3n2)C1 (stereo not shown) | 8.23 |
| CCCc1cnc(NCCNCC(O)COc2ccc(Cl)c(Cl)c2)nc1 (stereo not shown) | -30.7 |
| CCc1c(C)[nH]c2ccccc2c1=O | -7.65 |
| COc1ccc(NC(=O)CC(C)c2ccccc2)c([N+](=O)[O-])c1 (stereo not shown) | 14.5 |
| Br.CCCC1CC(C)(C(=O)CSc2n[nH]c(-c3ccccc3)n2)OC1=O (stereo not shown) | -6.1 |
| COc1cc(OC)c(Cl)cc1N | 8.91 |

| Compound | hERG current change (%, negative = inhibition) at 1uM [%] |
| --- | --- |
| CCc1cc2c(=O)n(Cc3ccco3)c(SCC(=O)NCC3CCCO3)nc2s1 (stereo not shown) | -60.5 |
| CCC(=O)NC(C)C(c1cccs1)N1CCN(c2ccccc2)CC1 (stereo not shown) | 14.3 |
| OCC[C@H]1C[C@H](O)[C@@H](O)[C@@]2(OCc3ccccc32)O1 | 9.39 |
| CCOc1ccccc1OCCCOc1ccc([N+](=O)[O-])cc1Cl | 12.4 |
| COc1ccc(Cn2nnnc2C(c2cc(OC)ccc2OC)N2CCC(C(N)=O)CC2)cc1 (stereo not shown) | 7.16 |
| Cn1cnnc1SC1c2cccc3cccc(c23)C1NS(=O)(=O)c1ccccc1 (stereo not shown) | -0.295 |
| CC(O)c1cccc(NC(=O)Nc2cccc(NC(=O)Nc3cccc(C(C)O)c3)c2)c1 (stereo not shown) | 13.6 |
| CC1CCc2sc(C(=O)NCCCn3ccnc3)cc2C1 (stereo not shown) | 11.6 |
| CCCOc1ncnc2c1[nH]c1ccccc12 | 13.9 |
| O=C(O)CSCC(=O)N1CCN(c2ccnc3cc(Cl)ccc23)CC1 | 6.12 |
| C=CCOc1ccc(/C=C2\N=C(C)OC2=O)cc1OC | 14.9 |
| COc1ccc(C(=O)CCC(=O)N2CCN(c3cccc(Cl)c3)CC2)cc1 | -9.92 |
| COc1ccc(OC)c(N(CC(=O)NCCSCc2ccco2)S(=O)(=O)c2ccc(OC)c(OC)c2)c1 | 3.56 |
| O=C(Nc1ccccc1)c1nnn(Cc2ccccc2)c1NC(=O)C(F)(F)F | 1.24 |
| O=C(Nc1cccc(Cl)c1)/C(=C\c1cccnc1)NC(=O)c1ccco1 | -42.3 |
| COc1cc(S(=O)(=O)Nc2ccccc2C(=O)N2CCCCC2)ccc1NC(C)=O | 13 |
| CC(=O)N1CCN(S(=O)(=O)c2ccc3c(c2)CC(=O)N3)CC1 | 1.42 |
| O=C(CC(c1ccccc1)c1ccccc1)Nc1ccc(C(=O)O)cc1 | 11.1 |
| CC(NC(=S)Nc1ccc(S(=O)(=O)N2CCOCC2)cc1)C1CC2CCC1C2 (stereo not shown) | 10.9 |
| Cc1cc(C)cc(C(=O)N(NC(=O)Nc2ccc(Cl)cc2)C(C)(C)C)c1 | 8.47 |
| Cc1cc(C)n(CC(C)NC(=O)CCc2nnc(CCc3ccccc3)o2)n1 (stereo not shown) | 11.9 |
| N#Cc1ccccc1OCC(O)CS(=O)(=O)c1ccccc1 (stereo not shown) | 7.85 |

| Compound | hERG current change (%, negative = inhibition) at 1uM [%] |
| --- | --- |
| COCCN(C(=O)CCc1nnc(CCc2c[nH]c3ccccc23)o1)C(C)C | 8.97 |
| Cc1oc2cc3oc(=O)c(CCC(=O)N(C)CC(=O)O)c(C)c3cc2c1C | 10.2 |
| COc1ccc(C(=O)CSc2ccc(-c3ccc(C)cc3)nn2)cc1 | 18.1 |
| COc1ccc(NC(=O)c2nc(C)n(-c3ccc([N+](=O)[O-])cc3)n2)cc1 | 5.3 |
| Cc1ccc(OCCn2ccnc2)c(C)c1 | 8.18 |
| Cc1ccc(Cn2c(=O)n(CCC(=O)NCc3ccc4c(c3)OCO4)c(=O)c3ccccc32)cc1 | -0.532 |
| Cc1nc(C(=O)NCc2ccccc2)sc1C1(C)CC(c2cccc([N+](=O)[O-])c2)=NO1 (stereo not shown) | 9.93 |
| COCCNC(=O)C(c1ccc(C)cc1)N(C(=O)CCC(=O)Nc1ccccn1)c1ccccc1C (stereo not shown) | 14.8 |
| CCOC(=O)c1cc(-c2ccc(OC)cc2)nn1-c1ccc(C(=O)O)cc1 | 10.2 |
| CCOC(=O)c1c(NC(=O)CC2SC(=NC)N(C)C2=O)sc(C)c1C (stereo not shown) | 3.73 |
| CCOc1ccccc1C(=O)N/N=C/c1cccc2cccnc12 | 9.42 |
| CN(C)S(=O)(=O)c1cccc(NC(=O)c2cccc(NS(=O)(=O)c3ccccc3)c2)c1 | 12.2 |
| CN(CC(=O)Nc1ccccc1C(F)(F)F)C(=O)c1cccc(-n2cccc2)c1 | 6 |
| CCCCN(Cc1ccccc1)S(=O)(=O)c1ccc2[nH]c(=O)oc2c1 | 6.79 |
| CCCCn1c(O)c(C(C)=Nc2ccc(OCC)cc2)c(=O)[nH]c1=O | 6.03 |
| CC1=NN(C(=O)c2nn(C)cc2Br)C(O)(C(F)(F)F)C1 (stereo not shown) | 9.17 |
| CC(=O)Nc1ccc(NC(=O)Cn2cc3c(n2)CCCC3)cc1 | 7.63 |
| Cn1c(N)c(C#N)c2c(c1=S)COC(C)(C)C2 | 9.76 |
| CC1(C)CC(=O)C2=C(C1)N(c1ccccc1)C(N)=C(C#N)C2c1cccnc1 (stereo not shown) | 11.2 |
| O=C(NCC1CCCO1)c1ccc([N+](=O)[O-])s1 (stereo not shown) | 9.14 |
| c1ccc(-c2nnc(SCC3CCCCO3)nc2-c2ccccc2)cc1 (stereo not shown) | 17.3 |
| COc1cccc(C2=CC(c3ccccc3)n3ncnc3N2)c1 (stereo not shown) | 9.62 |

| Compound | hERG current change (%, negative = inhibition) at 1uM [%] |
| --- | --- |
| COc1ccc(CCNC(=O)C(=O)NCc2ccc(Cl)cc2)cc1OC | 19 |
| NS(=O)(=O)c1ccc(NC(=O)CSc2n[nH]c(=O)n2Cc2ccccc2)cc1 | 12.5 |
| COc1cccc(C(=O)OCC(=O)NCCCc2ccccc2)c1 | 9.81 |
| O=C(NN1CCCCC1)c1ccccc1 | 3.97 |
| O=C(CNC(=O)c1cccs1)NCC(=O)OCc1cccc(Cl)c1 | 0.407 |
| Cc1nc(-c2ccc(F)cc2)c(CC(=O)NCC(=O)Nc2ccc(F)c(F)c2)s1 | -14.9 |
| CC(=O)N1CCc2c(sc(NC(=O)C3CC3)c2-c2nc3ccccc3s2)C1 | 9.49 |
| COc1ccc2c(c1)c(C(=O)N/N=C/c1ccccc1Cl)c(C)n2C | 8.08 |
| COc1ccc(S(=O)(=O)N2CCC(C(=O)NC3CCCC3)CC2)cc1OC | 37 |
| Cc1ccc(-n2c(=O)[nH]cc(C(=O)N3CCc4ccccc43)c2=O)cc1C | 2.92 |
| Cc1[nH]nc2c1C(C1CC=CCC1)C(C#N)=C(N)O2 (stereo not shown) | 12 |
| Cc1ccc(-n2nc(-c3cccnc3)cc2C(=O)N2CCOCC2)c(C)c1 | 13.2 |
| Cc1ccc(NC(=S)/C(=C(\[O-])c2ccc(C)c([N+](=O)[O-])c2)[n+]2ccccc2)cc1C | -3.25 |
| COC(=O)C1CN(C(=O)COc2ccc(Cl)cc2C)c2ccccc2O1 (stereo not shown) | 11.7 |
| O=S(=O)(c1cccc(C(F)(F)F)c1)N1CCN(C(=S)NC2CC2)CC1 | 10.2 |
| Cn1c(=O)c2c(nc(CN3CCOCC3)n2CCc2ccccc2)n(C)c1=O | 5.54 |
| CCn1cc(C(=O)NCCCN(C)C)c(=O)c2cc(F)c(N3CCN(C)CC3)cc21.Cl | 14.9 |
| CC(NCC(O)COCc1ccc(Cl)cc1)c1ccccc1.Cl (stereo not shown) | -14.4 |
| COc1ccc(C(=O)NN2CCOCC2)cc1 | -12.6 |
| Cc1ccc(C(=O)N2CCN=C2SCc2ccc([N+](=O)[O-])cc2)cc1 | -16.9 |
| Cc1csc(C(C#N)C(=O)c2ccncc2)n1 (stereo not shown) | 14.3 |
| NNC(=O)CCN(Cc1ccco1)S(=O)(=O)c1ccc(Cl)cc1 | 11.8 |
